Here are results for 53 molecules from ChEMBL document CHEMBL5308541, “MAIP: An Open-Source Tool to Enrich High-Throughput Screening Output and Identify Novel, Druglike Molecules with Antimalarial Activity” (ACS Med Chem Lett, 2023).

Screen size: about 150,000 compounds; about 540 (0.36%) showed an effect of 50% or more. The list shows a part of the results.

The test system of this assay is Plasmodium falciparum. As to the kind of experiment: Primary screen in NF54 nanoGlo assay, in single point, at 2uM, 72h; a lower Z score goes with more inhibition. The assay is classed as functional, Erythrocyte. The conditions noted are these: timepoint 72 hour.
For orientation: % Inhibition means the change of the read-out against control, counted positive when it falls. On to `Cc1ncc(CNC(=O)c2ccc(C)c(C)c2Cl)o1`, for which the “% Inhibition” value worked out at 0% and the Z score is listed as -0.04.
Taken in the same sequence, the figures for `CC(=O)N1CCN(Cc2cccc(-c3ccc4c(c3)NC(=O)NC4)c2)CC1` were 3% and -0.73.
Taken in the same sequence, the figures for `Cc1ccc(OC2CCN(CCCN3CCN(c4ccccc4)CC3)CC2)nc1` were -2% and 0.26.
As for `COC(=O)c1cn(C[C@H](c2ccc(N(C)C)cc2)c2c[nH]c3ccccc23)cc2c(O)nnc1-2`, the “% Inhibition” value is recorded as -7% and the Z score was determined as 1.13.
Turning to `Fc1ccc(N2CC[C@H](N3CCCC4(CCNCC4)C3)C2)cc1`, the “% Inhibition” value is reported as -10% and the Z score stood at 1.53.
Taken in the same sequence, the figures for `OC1CCN(C[C@H](O)COc2cccc(CN3CCC4(CCO4)CC3)c2)CC1` were -2% and 0.36.
For `CN1C(=O)C2CCCC1CN(C/C=C/c1ccccc1)C2` (stereo unspecified) the same measures were 3% and -0.39.
Turning to `CC(C)C[C@@H](CNC(=O)Nc1ccc(N2CCCN(C)CC2)c(F)c1)N1CCOCC1`, the “% Inhibition” value is reported as -4% and the Z score is reported as 0.63.
For `O=C(c1ccc(NC[C@H](c2ccccc2)c2c[nH]c3ccccc23)nc1)N1CCCC1` the same measures were -11% and 1.69.
For `CC(C)N1CCC(N(CCNC(=O)c2ccncn2)C2CCOCC2)CC1` the same measures were -15% and 2.72.
With `CNc1ccnc(N(C)CCN2CCCC[C@@H]2C)n1`, the “% Inhibition” value was 1% and the Z score is -0.24.
Regarding `CC1CCN(C2CCC(Nc3ncnc4c3ncn4C3CC3)CC2)CC1` (stereo unspecified), the “% Inhibition” value was -4% and the Z score worked out at 0.79.
In the case of `C[C@@H](CN1CCN(C)CC1)NCCc1nc(-c2ccccc2)cs1`, the “% Inhibition” value turned out to be 3% and the Z score is listed as -0.48.
For `COc1cccc(-n2cc([C@H](C)Nc3ncnc4cc[nH]c34)cn2)c1` the same measures were 7% and -1.22.
For `COC(=O)N1CCC(NC2CCN(CCC(F)(F)F)CC2)CC1` the same measures were 1% and -0.25.
On to `COc1ccnc(NCc2cccc(-c3ncc[nH]3)c2)n1`, for which the “% Inhibition” value is recorded as 1% and the Z score is recorded as -0.21.
For `CC(C)c1cc(C(F)(F)F)nc(N2CCN(c3ncnc4cc[nH]c34)CC2)n1` the same measures were 2% and -0.43.
Taken in the same sequence, the figures for `CCN(CC)c1ccc(-c2noc(CN3CCN(C4CCCCC4)CC3)n2)cn1` were -7% and 0.99.
`CC1(C(=O)NC2CCN(Cc3ccc(F)cc3)C2=O)CCCOC1` (stereo unspecified): the “% Inhibition” value turned out to be 6% and the Z score is given as -1.1.
For the molecule `Cc1nc(C(=O)NCc2cc3ccccc3o2)cs1`, the “% Inhibition” value is given as 6% and the Z score is reported as -1.15.
For `Cc1cccc(-c2cncc(C(=O)NC[C@H]3C[C@@H](N(C)C)C3)c2)c1` the same measures were 12% and -2.61.
Taken in the same sequence, the figures for `CCN1CCC[C@@H]1CNC(=O)c1ccc(-c2cnn3cccnc23)cc1` were -6% and 1.
Taken in the same sequence, the figures for `CCN(CCN1CCCCCC1)C(=O)NCCNc1ccncc1C` were -11% and 2.32.
For the molecule `COCCOc1ccc(N2C(=O)N[C@](C)(c3ccc(OC)cc3)C2=O)cn1`, the “% Inhibition” value is listed as -10% and the Z score is given as 1.93.
For `CC(c1ccccc1F)N1CCCC(NC(=O)N2CCC(O)C(F)(F)C2)C1=O` (stereo unspecified) the same measures were -11% and 1.67.
Taken in the same sequence, the figures for `CN1CCN(c2cc(NC[C@H](O)c3ccc(Cl)c(F)c3)ncn2)CC1=O` were -2% and 0.45.
For `Cc1nc2n(n1)CCN(C(=O)CCc1c(-c3ccccc3)[nH]c3ccc(F)cc13)C2` the same measures were 13% and -2.67.
Regarding `O=C([C@@H]1Cc2cc(Cl)ccc2N1)N1CCC(N2CCC(O)CC2)CC1`, the “% Inhibition” value was found to be 3% and the Z score is -0.51.
Taken in the same sequence, the figures for `COc1cccc(CNc2nccc3occc23)c1` were 3% and -0.52.
Taken in the same sequence, the figures for `CN(CCCN1CCCCCC1)C(=O)c1cccc(-c2cnccc2N)c1` were -6% and 1.01.
For `Cc1nsc(C)c1C(=O)NC1CCC(=O)N(C)C1c1ccnn1C` (stereo unspecified) the same measures were -4% and 0.73.
As for `Fc1cc2nc(-c3cnc(N4CCOCC4)nc3)[nH]c2cc1Br`, the “% Inhibition” value is reported as -4% and the Z score stood at 0.61.
For `CN1CCC2(CC1)CN(c1ncnc3cc[nH]c13)CCO2` the same measures were -4% and 0.6.
For `Cc1cc(C)nc(N2CC(Cn3nc(-c4ccncc4)ccc3=O)C2)n1` the same measures were -6% and 1.22.
Take `C(=Cc1ccc2ccccc2n1)c1ccc(N2CCCCC2)cc1`: the “% Inhibition” value is on record as -1% and the Z score is 0.13.
`O=C(Nc1cnccc1N1CCOCC1)c1ccn(C2CCCC2)n1`: the “% Inhibition” value was found to be 14% and the Z score is -2.38.
Taken in the same sequence, the figures for `FC1(F)CCN(CCN2C[C@@H]3CN(Cc4ccccc4)C[C@@H]3C2)CC1` were 17% and -3.59.
For `CN1CCN(C[C@H]2CCCN(S(=O)(=O)c3ccc(-c4ccccc4)cc3)C2)CC1` the same measures were -5% and 1.04.
For `C#CCOc1ccc(N(C)C(=O)CC2(O)CCCC2)cc1` the same measures were -8% and 1.53.
For the molecule `CN1C[C@@H](CN2CCCN(C3CCCCC3)CC2)CCC1=O`, the “% Inhibition” value is recorded as -5% and the Z score was 0.77.
As to `O=C(Nc1ccc(NCC2CCCC2)cc1)c1cnc2c(cnn2C2CCCC2)c1`, the “% Inhibition” value was 3% and the Z score is -0.58.
For `O=C(c1ccc2noc(-c3ccccc3)c2c1)N1CC(Nc2ccncn2)C1` the same measures were 6% and -0.98.
Consider `CC(C)C[C@H](C)N(C(=O)c1nc(N2CCCC2)ncc1Cl)c1ccc2[nH]ccc2c1`, for which the “% Inhibition” value amounted to 0% and the Z score is given as -0.05.
In the case of `O=C(NC1CNCCC1O)c1cc2c(Cl)cccc2[nH]1` (stereo unspecified), the “% Inhibition” value is recorded as -3% and the Z score is on record as 0.71.
`O=C([C@H]1CCCN(c2cnccn2)C1)N1CCc2[nH]c3ccc(Br)cc3c2C1`: the “% Inhibition” value turned out to be 5% and the Z score is -0.82.
Taken in the same sequence, the figures for `O=c1cnnc(NC2CCCCCCCCCCC2)n1C1CCCCCCCCCCC1` were 5% and -1.08.
Taken in the same sequence, the figures for `Nc1nc(NC2CCN(Cc3ccc(F)cc3)CC2)cc(-n2cccn2)n1` were -5% and 0.84.
Take `CC[C@H]1CCCCN1Cc1c(C)nc2ccc(N(CC)CC)cc2c1O`: the “% Inhibition” value is on record as -3% and the Z score came out at 0.5.
As for `O=S(=O)(Oc1ccc(Cl)c2cccnc12)N1CCCCC1`, the “% Inhibition” value was -9% and the Z score was determined as 1.32.
Taken in the same sequence, the figures for `CN1CCN(C[C@H]2CCCN(Cc3ccc(-n4ccnc4)nc3)C2)CC1` were 16% and -2.8.
Taken in the same sequence, the figures for `Cc1c[nH]c2ncc(-c3cnc(N4CCC(O)CC4)nc3)cc12` were -7% and 1.48.
In the case of `Nc1nc(NCCO)cc(N2CC(CO)CC(CN3CCCC3)C2)n1` (stereo unspecified), the “% Inhibition” value is 1% and the Z score is -0.09.
For `COCC1(CNC(=O)C2OCC(=O)N(C3CC3)C2c2cccnc2)CCC1` (stereo unspecified) the same measures were 10% and -2.19.
